From patent US20020106773A1 (MYRIAD GENETICS, published 2002) come the findings set out here.

B5: CIB, amino acids 1-191, fused to the Gal4 DNA binding domain (bait) (other, UniProt P04386 1-147, looked up)
chain: MKLLSSIEQACDICRLKKLKCSKEKPKCAKCLKNNWECRYSPKTKRSPLTRAHLTEVESRLERLEQLFLLIFPREDLDMILKMDSLQDIKALLTGLFVQDNVNKDAVTDRLASVETDMPLTLRQHRISATSSSEESSNKGQRQLTVSMGGSGSRLSKELLAEYQDLTFLTKQEILLAHRRFCELLPQEQRSVESSLRAQVPFEQILSLPELKANPFKERICRVFSTSPAKDSLSFEDFLDLLSVFSDTATPDIKSHYAFRIFDFDDDGTLNREDLSRLVNCLTGEGEDTRLSASEMKQLIDNILEESDIDRDGTINLSEFQHVISRSPDFASSFKIVL
notes: range 1-147;range 1-191; Yeast two-hybrid bait in pGBTQ

The target of test [1] is T1, focal adhesion kinase (FAK), amino acids 724-1052, fused to the Gal4 DNA binding domain (bait) (yeast, UniProt P04386 1-147; Q05397 724-1052).
T1 construct: range 1-147;range 724-1052; Yeast two-hybrid bait in pGBTQ
The test can be described thus: yeast two-hybrid, Example 28: bait FAK aa 724-1052, prey aa 15-226.

The target of test [2] is T2, phosphodiesterase 9A (PDE-9A), amino acids 269-593, fused to the Gal4 activation domain (prey) (yeast; human, UniProt P04386 768-881; O76083 269-593).
T2 construct: range 768-881;range 269-593; Yeast two-hybrid prey from the human brain cDNA library in pACT2
Kind of test: yeast two-hybrid, Example 24: bait Mint2 aa 1-210, prey aa 269-593.

Test [3] has as its target T3, Focal adhesion kinase 2 (FAK2), amino acids 673-866, fused to the Gal4 DNA binding domain (bait) (yeast, UniProt P04386 1-147; Q14289 673-866).
T3 construct: range 1-147;range 673-866; Yeast two-hybrid bait in pGBTQ; also called proline-rich tyrosine kinase 2 (PYK2); cell adhesion kinase beta
Kind of test: yeast two-hybrid, Example 23: bait FAK2 aa 673-866, prey aa 121-270.

For test [4], the target named is T4, neuroendocrine protein Discs Large 3 (DLG3), amino acids 94-506, fused to the Gal4 activation domain (prey) (yeast; human, UniProt P04386 768-881; Q92796 94-506).
T4 construct: range 768-881;range 94-506; Yeast two-hybrid prey from the human brain cDNA library in pACT2; also called NE-d1g; SAP102 (synapse-associated protein 102)
T4 sequence (looked up): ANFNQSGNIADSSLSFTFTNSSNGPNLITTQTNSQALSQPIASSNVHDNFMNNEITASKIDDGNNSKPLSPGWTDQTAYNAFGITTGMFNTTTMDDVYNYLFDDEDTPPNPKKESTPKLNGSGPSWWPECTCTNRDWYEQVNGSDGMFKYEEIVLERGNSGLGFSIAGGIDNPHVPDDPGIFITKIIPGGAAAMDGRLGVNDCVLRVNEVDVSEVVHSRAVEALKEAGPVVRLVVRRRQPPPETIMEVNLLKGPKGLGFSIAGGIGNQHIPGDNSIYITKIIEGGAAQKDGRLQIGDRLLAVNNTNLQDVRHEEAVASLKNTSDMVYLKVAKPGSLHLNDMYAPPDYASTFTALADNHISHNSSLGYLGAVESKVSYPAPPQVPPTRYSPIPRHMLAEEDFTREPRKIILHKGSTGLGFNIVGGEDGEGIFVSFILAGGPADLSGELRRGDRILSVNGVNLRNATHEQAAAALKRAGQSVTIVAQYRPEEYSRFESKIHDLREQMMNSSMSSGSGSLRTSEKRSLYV
The test can be described thus: yeast two-hybrid, Example 30: bait bcr aa 1206-1271, prey aa 94-506.

The target of test [5] is T5, transcription factor HTF4A, amino acids 296-494, fused to the Gal4 activation domain (prey) (yeast; human, UniProt P04386 768-881; Q99081 296-494).
T5 construct: range 768-881;range 296-494; Yeast two-hybrid prey from the human brain cDNA library in pACT2
T5 sequence (looked up): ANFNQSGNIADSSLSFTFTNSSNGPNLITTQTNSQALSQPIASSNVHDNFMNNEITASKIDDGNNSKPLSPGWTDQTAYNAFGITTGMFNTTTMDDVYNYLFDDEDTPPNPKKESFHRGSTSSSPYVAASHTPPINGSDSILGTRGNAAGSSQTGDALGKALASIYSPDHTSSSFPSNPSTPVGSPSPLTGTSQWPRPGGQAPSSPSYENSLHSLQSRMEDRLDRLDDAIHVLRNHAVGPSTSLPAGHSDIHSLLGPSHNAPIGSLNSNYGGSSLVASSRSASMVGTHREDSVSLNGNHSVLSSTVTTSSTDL
The test can be described thus: yeast two-hybrid, Example 32: bait bcr aa 1206-1271, prey aa 296-494.

Test [6] deals with T6, mixed lineage kinase 2 (MLK2), amino acids 305-549, fused to the Gal4 activation domain (prey) (yeast; human, UniProt P04386 768-881; Q02779 305-549).
T6 construct: range 768-881;range 305-549; Yeast two-hybrid prey from the human brain cDNA library in pACT2; also called MST; MAP3K10
The test can be described thus: yeast two-hybrid, Example 21: bait CIB aa 1-191, prey aa 305-549.

For test [7], the target named is T7, glyceraldehyde-3-phosphate dehydrogenase (GAPDH), amino acids 2-190, fused to the Gal4 activation domain … (yeast; human, UniProt P04386 768-881; P04406 2-190).
T7 construct: range 768-881;range 2-190; Yeast two-hybrid prey from the human brain cDNA library in pACT2; the same range is printed for the PS1 and the PS2 search
The test can be described thus: yeast two-hybrid, Example 16: bait PS2 aa 1-97, prey aa 2-190.

Test [8] addresses T8, glutamine synthase (GS), amino acids 49-212, fused to the Gal4 activation domain (prey) (yeast; human, UniProt P04386 768-881; P15104 49-212).
T8 construct: range 768-881;range 49-212; Yeast two-hybrid prey from the human brain cDNA library in pACT2; also called glutamine synthetase; glutamate ammonia ligase
Kind of test: yeast two-hybrid, Example 7: bait Mint1 aa 739-837, prey aa 49-212.

Test [9] deals with T9, transthyretin (TTH), amino acids 7-148, fused to the Gal4 activation domain (prey) (yeast; human, UniProt P04386 768-881; P02766 7-147).
T9 construct: Yeast two-hybrid prey from the human brain cDNA library in pACT2
Kind of test: yeast two-hybrid, Example 5: bait BAT3 aa 740-1040, prey aa 7-148.

For test [10], the target named is T1, focal adhesion kinase (FAK), amino …. The test can be described thus: yeast two-hybrid, Example 27: bait FAK aa 724-1052, prey aa 264-351.
Test [11] deals with B5. The test can be described thus: yeast two-hybrid, Example 25: bait CIB aa 1-191, prey aa 320-359.

B1: glutathione-S-transferase M3 (GST trans. M3), amino acids 15-226, fused to the Gal4 activation domain (prey) (other, yeast;human, UniProt P04386 768-881, looked up, not shown: small tags and cut ends)
chain: ANFNQSGNIADSSLSFTFTNSSNGPNLITTQTNSQALSQPIASSNVHDNFMNNEITASKIDDGNNSKPLSPGWTDQTAYNAFGITTGMFNTTTMDDVYNYLFDDEDTPPNPKKERGLAHAIRLLLEFTDTSYEEKRYTCGEAPDYDRSQWLDVKFKLDLDFPNLPYLLDGKNKITQSNAILRYIARKHNMCGETEEEKIRVDIIENQVMDFRTQLIRLCYSSDHEKLKPQYLEELPGQLKQFSMFLGKFSWFAGEKLTFVDFLTYDILDQNRIFDPKCLDEFPNLKAFMCRFEALEKIAAYLQSDQFCKMPINNKMAQWGNKPVC
notes: range 768-881;range 15-226; Yeast two-hybrid prey from the human brain cDNA library in pACT2
As for B1, the binding result in test [1] is reported as “binds”.

B2: Mint2, amino acids 1-210, fused to the Gal4 DNA binding domain (bait) (other, UniProt P04386 1-147, looked up)
chain: MKLLSSIEQACDICRLKKLKCSKEKPKCAKCLKNNWECRYSPKTKRSPLTRAHLTEVESRLERLEQLFLLIFPREDLDMILKMDSLQDIKALLTGLFVQDNVNKDAVTDRLASVETDMPLTLRQHRISATSSSEESSNKGQRQLTVSMAHRKLESVGSGMLDHRVRPGPVPHSQEPESEDMELPLEGYVPEGLELAALRPESPAPEEQECHNHSPDGDSSSDYVNNTSEEEDYDEGLPEEEEGITYYIRYCPEDDSYLEGMDCNGEEYLAHSAHPVDTDECQEAVEEWTDSAGPHPHGHEAEGSQDYPDGQLPIPEDEPSVLEAHDQEEDGHYCASKEGYQDYYPEEANGNTGASPY
notes: range 1-147;range 1-210; Yeast two-hybrid bait in pGBTQ; also called X11 beta
B2: the binding result in test [2] is recorded as “binds”.

B3: SUR1, the type-1 sulfonylurea receptor, amino acids 121-270, fused to the Gal4 activation domain (prey) (other, yeast;human, UniProt P04386 768-881, looked up, not shown: small tags and cut ends)
chain: ANFNQSGNIADSSLSFTFTNSSNGPNLITTQTNSQALSQPIASSNVHDNFMNNEITASKIDDGNNSKPLSPGWTDQTAYNAFGITTGMFNTTTMDDVYNYLFDDEDTPPNPKKEVVYYHNIETSNFPKLLIALLVYWTLAFITKTIKFVKFLDHAIGFSQLRFCLTGLLVILYGMLLLVEVNVIRVRRYIFFKTPREVKPPEDLQDLGVRFLQPFVNLLSKGTYWWMNAFIKTAHKKPIDLRAIGKLPIAMRALTNYQRLCEAF
notes: Yeast two-hybrid prey from the human brain cDNA library in pACT2; also called SURI
With B3, in [3], the binding result is reported as “binds”.

B4: bcr (break point cluster), amino acids 1206-1271 (C-terminal bait), fused to the Gal4 DNA binding domain (other, UniProt P04386 1-147, looked up)
chain: MKLLSSIEQACDICRLKKLKCSKEKPKCAKCLKNNWECRYSPKTKRSPLTRAHLTEVESRLERLEQLFLLIFPREDLDMILKMDSLQDIKALLTGLFVQDNVNKDAVTDRLASVETDMPLTLRQHRISATSSSEESSNKGQRQLTVSVFGPTLLRPSEKESKLPANPSQPITMTDSWSLEVMSQVQVLLYFLQLEAIPAPDSKRQSILFSTEV
notes: Yeast two-hybrid bait in pGBTQ
For B4, the binding result in test [4] and in test [5] was “binds” in each case.

On to B5, for which the binding result in [6] is given as “binds”.

B6: Presinilin 2 (PS2), amino acids 1-97, fused to the Gal4 DNA binding domain (bait) (other, UniProt P04386 1-147, looked up)
chain: MKLLSSIEQACDICRLKKLKCSKEKPKCAKCLKNNWECRYSPKTKRSPLTRAHLTEVESRLERLEQLFLLIFPREDLDMILKMDSLQDIKALLTGLFVQDNVNKDAVTDRLASVETDMPLTLRQHRISATSSSEESSNKGQRQLTVSMLTFMASDSEEEVCDERTSLMSAESPTPRSCQEGRQGPEDGENTAQWRSQENEEDGEEDPDRYVCSGVPGRPPGLEEELTLKYGAKHVIMLFVPVTL
notes: range 1-147;range 1-97; Yeast two-hybrid bait in pGBTQ
Regarding B6, the binding result in [7] was “binds”.

B7: Mint1, amino acids 739-837, fused to the Gal4 DNA binding domain (bait) (other, UniProt P04386 1-147, looked up)
chain: MKLLSSIEQACDICRLKKLKCSKEKPKCAKCLKNNWECRYSPKTKRSPLTRAHLTEVESRLERLEQLFLLIFPREDLDMILKMDSLQDIKALLTGLFVQDNVNKDAVTDRLASVETDMPLTLRQHRISATSSSEESSNKGQRQLTVSIVRCPPVTTVLIRRPDLRYQLGFSVQNGIICSLMRGGIAERGGVRVGHRIIEINGQSVVATPHEKIVHILSNAVGEIHMKTMPAAMYRLLTAQEQPVYI
notes: Yeast two-hybrid bait in pGBTQ; also called X11 alpha
As to B7, the binding result in [8] is “binds”.

B8: HLA-B associated transcript (BAT3), amino acids 740-1040, fused to the Gal4 DNA binding domain (bait) (other, UniProt P04386 1-147, looked up)
chain: MKLLSSIEQACDICRLKKLKCSKEKPKCAKCLKNNWECRYSPKTKRSPLTRAHLTEVESRLERLEQLFLLIFPREDLDMILKMDSLQDIKALLTGLFVQDNVNKDAVTDRLASVETDMPLTLRQHRISATSSSEESSNKGQRQLTVSFEPGADGALGFFGALLSLLCQNFSMVDVVMLLHGHFQPLQRLQPQLRSFFHQHYLGGQEPTPSNIRMATHTLITGLEEYVRESFSLVQVQPGVDIIRTNLEFLQEQFNSIAAHVLHCTDSGFGARLLELCNQGLFECLALNLHCLGGQQMELAAVINGRIRRMSRGVNPSLVSWLTTMMGLRLQVVLEHMPVGPDAILRYVRRVGDPPQPLPEEPMEVQGAERASPEPQRENASPAPGTTAEEAMSRGPPPAPEGGSRDEQDGASAETEPWAAAVPPEWVPIIQQDIQSQRKVKPQPPLSD
notes: as for B4
For the molecule B8, the binding result in test [9] is listed as “binds”.

B9: casein kinase II (CK2), amino acids 264-351, fused to the Gal4 activation domain (prey) (other, yeast;human, UniProt P04386 768-881, looked up, not shown: small tags and cut ends)
chain: ANFNQSGNIADSSLSFTFTNSSNGPNLITTQTNSQALSQPIASSNVHDNFMNNEITASKIDDGNNSKPLSPGWTDQTAYNAFGITTGMFNTTTMDDVYNYLFDDEDTPPNPKKEIDLDPHFNDILGQHSRKRWENFIHSENRHLVSPEALDLLDKLLRYDHQQRLTAKEAMEHPYFYPVVKEQSQPCADNAVLSSGLTAAR
notes: Yeast two-hybrid prey from the human brain cDNA library in pACT2
Turning to B9, the binding result in test [10] is listed as “binds”.

B10: stearoyl CoA desaturase (SCD2), amino acids 320-359, fused to the Gal4 activation domain (prey) (other, yeast;human, UniProt P04386 768-881, looked up, not shown: small tags and cut ends)
chain: ANFNQSGNIADSSLSFTFTNSSNGPNLITTQTNSQALSQPIASSNVHDNFMNNEITASKIDDGNNSKPLSPGWTDQTAYNAFGITTGMFNTTTMDDVYNYLFDDEDTPPNPKKETTFFIDCMAALGLAYDRKKVSKAAILARIKRTGDGNYKSG
notes: range 768-881;range 320-359; Yeast two-hybrid prey from the human brain cDNA library in pACT2; also called Delta(9) desaturase
For the molecule B10, in test [11], the binding result was “binds”.
